Results from a collection of fitness landscapes (doi:10.1016/j.celrep.2020.107928).
The full ranking holds about 81,000 sequences; the median of “one-hybrid fitness for binding NBS DNA” is about -0.1, and the highest 2% start at about 0.36. The list shows a part of the results.

B1: Caulobacter ParB omega fusion; a variant is named by its letters at X, in order, B8GW30 (parent)
chain: MESVVVGEPGMSEGRRGLGRGLSALLGEVDAAPAQAPGEQLGGSREAPIEILQRNPDQPRRTFREEDLEDLSNSIREKGVLQPILVRPSPDTAGEYQIVAGERAWRAAQRAGLKTVPIMVRELDDLAVLEIGIIENVQRADLNVLEEALSYKVLMEKFERTQENIAQTIGKSXSHVANXMRLLXLPDEVQSYLVSGELTAXHARAIAAAADPVALAKQIIEGGLSVRETEALARKAPNLSAGKSKGGRPPRVKDTDTQALESDLSSVLGLDVSIDHRGSTGTLTITYATLEQLDDLCNRLTRGI

Variants of: B1
Test: one-hybrid fitness for binding NBS DNA (the Noc-binding site; scaled: cognate 1, non-cognate 0); higher = stronger binding
Conditions: with NBS DNA site
Summary of the method: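 Pre- and post-selection plasmids were Illumina-sequenced, three replicate libraries were pooled, and any variant with under 10 reads was removed. The libraries were Caulobacter ParB with four specificity codons randomised, selected in E. coli USO through a HIS3 reporter whose site is 19 bp from the promoter. Cells grew 48 hours at 37°C on M9 without histidine, with 0.1 mM IPTG and 5 mM 3-AT. Fitness is the log change in variant-to-wild-type read ratio, rescaled against cognate and non-cognate.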

Variant | one-hybrid fitness for binding NBS DNA
ARTY | ≤ 0.2
PPNW | ≤ 0.2
NIHG | ≤ 0.2
RMSF | ≤ 0.2
LNDV | ≤ 0.2
LVAC | ≤ 0.2
FTNL | ≤ 0.2
CEPG | ≤ 0.2
TDAC | ≤ 0.2
ADCE | ≤ 0.2
LVSN | ≤ 0.2
SWES | ≤ 0.2
SGNR | ≤ 0.2
NYSI | ≤ 0.2
RPFL | ≤ 0.2
AKIF | ≤ 0.2
CNRY | ≤ 0.2
FVRS | ≤ 0.2
SEYS | ≤ 0.2
QYHA | 0.234
GWTT | ≤ 0.2

Variant | one-hybrid fitness for binding NBS DNA
VSDR | ≤ 0.2
PCKN | ≤ 0.2
WWNS | ≤ 0.2
AVNY | ≤ 0.2
LATG | ≤ 0.2
EPKC | ≤ 0.2
INTP | ≤ 0.2
HLRI | ≤ 0.2
TGSY | ≤ 0.2
FHAT | ≤ 0.2
PLIV | ≤ 0.2
MHYG | ≤ 0.2
PEVC | ≤ 0.2
QKFH | ≤ 0.2
GMPP | ≤ 0.2
YRCY | ≤ 0.2
LPYG | ≤ 0.2
RTHQ | ≤ 0.2
HFTS | ≤ 0.2
DRLR | ≤ 0.2
NWYY | ≤ 0.2

Variant | one-hybrid fitness for binding NBS DNA
QSMC | ≤ 0.2
SDVP | ≤ 0.2
VMAI | ≤ 0.2
RCAW | 0.431
RSAM | ≤ 0.2
KMRR | 0.398
EMKG | ≤ 0.2
APSL | ≤ 0.2
PTKN | ≤ 0.2
AYCY | ≤ 0.2
ATAL | ≤ 0.2
PVHH | ≤ 0.2
QAAP | ≤ 0.2
FPQW | ≤ 0.2
HAHT | ≤ 0.2
MVQG | ≤ 0.2
QKGH | 0.228
YRTG | ≤ 0.2
DACA | ≤ 0.2
SCFF | ≤ 0.2
TDHI | ≤ 0.2

Variant | one-hybrid fitness for binding NBS DNA
CMGA | ≤ 0.2
PVFR | ≤ 0.2
LKVE | ≤ 0.2
ISVC | ≤ 0.2
TTAM | ≤ 0.2
PDLH | ≤ 0.2
PHSW | ≤ 0.2
HSPI | ≤ 0.2
MATW | ≤ 0.2
AKNV | ≤ 0.2
HTYP | ≤ 0.2
SNVR | ≤ 0.2
SRPY | ≤ 0.2
TFSC | ≤ 0.2
PWKA | ≤ 0.2
RYLR | 0.354
RLCL | ≤ 0.2
HRKR | 0.395
QSEP | ≤ 0.2
LYTT | ≤ 0.2
LWWE | ≤ 0.2
